Values joined by “and” are separate entries in the source; they are usually repeats but may differ in a detail not shown here. Equal values may be shown once. The list shows a part of the results. Further columns of the screen follow, without active or inactive calls.
Legend:
Assay in all cases: Primary Screen for Target Class Profiling of Small Molecule Inhibitors of Methyltransferases
[1] = biological target: Glycine N-methyltransferase (Homo sapiens) (UniProt Q14749); conditions: purified enzyme, MTase-Glo SAH luminescence; measured here: GNMT inhibition; at 40 µM; stronger effect = lower value
Outline: (§1)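 Each enzyme was reacted with SAM and its substrate, with compounds tested once at 40 uM; SAH formed was read by MTase-Glo luminescence.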

[2] = biological target: Guanidinoacetate N-methyltransferase (Homo sapiens) (UniProt Q14353); conditions: purified enzyme, MTase-Glo SAH luminescence; measured here: GAMT inhibition; at 40 µM; stronger effect = lower value
Outline: as §1

[3] = biological target: Histamine N-methyltransferase (Homo sapiens) (UniProt P50135); conditions: purified enzyme, MTase-Glo SAH luminescence; measured here: HNMT inhibition; at 40 µM; stronger effect = lower value
Outline: as §1

[4] = biological target: Nicotinamide N-methyltransferase (Homo sapiens) (UniProt P40261); conditions: purified enzyme, MTase-Glo SAH luminescence; measured here: NNMT inhibition; at 40 µM; stronger effect = lower value
Outline: as §1

[5] = biological target: Phenylethanolamine N-methyltransferase (Homo sapiens) (UniProt P11086); conditions: purified enzyme, MTase-Glo SAH luminescence; measured here: PNMT inhibition; at 40 µM; stronger effect = lower value
Outline: as §1
% is scaled to controls: 0 for no effect and ±100 for the full control effect.

Structure (SMILES)	activity change, negative = inhibition [1]	activity change, negative = inhibition [2]	activity change, negative = inhibition [3]	activity change, negative = inhibition [4]	activity change, negative = inhibition [5]
COc1cc(CCNCc2ccccc2O)c(OC)cc1C#N	-6.85%	-17.6%	-27.1%	-29.4%	-5.48%
CC(C)CCNC(=O)N1Cc2ccccc2-n2cccc2C1c1cccc(Cl)c1 (stereo not given)	13.6%	6.38%	5.84%	6.17%	9.95%
CCCCC1C(=O)NC(=O)N(C2CCCCC2)C1=O (stereo not given)	-2.19%	4.56%	-1.13%	-15.1%	-5.61%
COC(=O)CCNC(=O)N1Cc2ccccc2-n2cccc2C1c1ccc(N(C)C)cc1 (stereo not given)	14.3%	3.42%	6.17%	6.07%	8.44%
Oc1ccc2c3c1O[C@H]1c4oc5ccccc5c4C[C@@]4(O)C(C2)N(CC2CC2)CCC314 (stereo not given in full)	-7.68%	1.43%	-5.28%	-14.2%	-3.88%
C=C(CO)C(=O)O[C@H]1CC(=C)[C@@H]2C[C@H](O)C(=C)[C@@H]2[C@H]2OC(=O)C(=C)[C@@H]21	3.34%	-14.2%	8.03%	-9.77%	3.53%
CC(N)Cc1c[nH]c2ccccc12 (stereo not given)	-1.26%	1.81%	-24.4%	-15.1%	-2.72%
COc1ccc(NC(=O)N2Cc3ccccc3-n3cccc3C2c2ccccc2)cc1OC (stereo not given)	4.44%	0%	-4.58%	-2.2%	1.22%
COC(=O)CCNC(=O)N1Cc2ccccc2-n2cccc2C1c1ccc(F)cc1 (stereo not given)	-1.51%	1.38%	-0.476%	-1.97%	2.48%
O=C(Cc1ccc(Cl)cc1)N1CCN(C2CCN(Cc3ccccn3)C2=O)CC1 (stereo not given)	-4.04%	-6.43%	-0.825%	-4.3%	-7.68%
CCCc1nc(C)cc(N2CCC3(CC2)CNC(C(=O)O)C3)n1 (stereo not given)	-6.46%	-5.93%	-10%	2.45%	-8.29%
C=C1C2(C)CC3C(C)(O)C4=CC(=O)OC(C)(C)C4=CCC3(C)C13C(=O)OC(C)C3(O)C2=O (stereo not given)	-1.11%	-10.1%	2.45%	-19.4%	-6.33%
CCN1CC2(COC)C3[C@@H](OC)C4C1C3(C1C[C@]3(O)[C@H](OC(=O)c5ccccc5)C1[C@]4(OC(C)=O)[C@@H](O)[C@@H]3OC)[C@H](OC)C[C@H]2O (stereo not given in full)	4.33%	9.89%	7.17%	-5.77%	3.96%
O=C(Nc1ccccc1F)N1Cc2ccccc2-n2cccc2C1c1ccccc1 (stereo not given)	4.62%	4.9%	4.65%	-2%	-9.57%
CN(C)CC(=O)Nc1ccc2n(c1=O)C[C@H]1C[C@@H]2CN(C(=O)c2cccnc2)C1	-3.78%	-10.3%	-3.88%	-10.8%	-6.18%
CS(=O)(=O)N1C[C@H]2CCN(Cc3ccncc3F)C[C@H]21	1.31%	-1.67%	2.7%	-3.07%	-7.68%
C/C=C(/C)C1C=CC2CC(C)CC(C)C2C1/C(O)=C1\C(=O)NC(CC(C)(O)C(=O)O)C1=O (stereo not given)	4.69%	8.04%	6.11%	-5.4%	5.32%
Cc1sc2c(c1C)C(c1ccc(Cl)cc1)=N[C@@H](CC(=O)Nc1ccc(O)cc1)c1nnc(C)n1-2	-7.92% and -30.9%	-8.9% and 7.51%	2.8% and -9.91%	-25.6% and -39.8% and -47%	-2.27% and 28.4% and 1.27%
CC1c2cccn2-c2ccccc2CN1C(=O)Nc1cccc2c1CCCC2 (stereo not given)	6.02%	3.98%	-2.03%	-5.29%	0.885%
CCc1c(C(=O)C(N)=O)c2c(OCC(=O)O)cccc2n1Cc1ccccc1	-0.801%	-15.1%	-3.1%	-23.5%	-16.2%

— PubChem BioAssay AID1745853 (National Center for Advancing Translational Sciences (NCATS), 2022)
